The results in this text go back to paper PMC4336329 (PLoS ONE, 2015).

Structures are written as SMILES. The campaign covered roughly 310,000 compounds. About 2,200 (0.71%) showed an effect of 50% or more. The effect is printed as a negative number. Some of the results follow.

For this assay, the target named is human ether-à-go-go-related gene (hERG) potassium channel (human, UniProt Q12809). Kind of assay: primary screen, population patch clamp on CHO cells stably expressing hERG.
human ether-à-go-go-related gene (hERG) potassium channel, sequence (Q12809 whole entry, looked up): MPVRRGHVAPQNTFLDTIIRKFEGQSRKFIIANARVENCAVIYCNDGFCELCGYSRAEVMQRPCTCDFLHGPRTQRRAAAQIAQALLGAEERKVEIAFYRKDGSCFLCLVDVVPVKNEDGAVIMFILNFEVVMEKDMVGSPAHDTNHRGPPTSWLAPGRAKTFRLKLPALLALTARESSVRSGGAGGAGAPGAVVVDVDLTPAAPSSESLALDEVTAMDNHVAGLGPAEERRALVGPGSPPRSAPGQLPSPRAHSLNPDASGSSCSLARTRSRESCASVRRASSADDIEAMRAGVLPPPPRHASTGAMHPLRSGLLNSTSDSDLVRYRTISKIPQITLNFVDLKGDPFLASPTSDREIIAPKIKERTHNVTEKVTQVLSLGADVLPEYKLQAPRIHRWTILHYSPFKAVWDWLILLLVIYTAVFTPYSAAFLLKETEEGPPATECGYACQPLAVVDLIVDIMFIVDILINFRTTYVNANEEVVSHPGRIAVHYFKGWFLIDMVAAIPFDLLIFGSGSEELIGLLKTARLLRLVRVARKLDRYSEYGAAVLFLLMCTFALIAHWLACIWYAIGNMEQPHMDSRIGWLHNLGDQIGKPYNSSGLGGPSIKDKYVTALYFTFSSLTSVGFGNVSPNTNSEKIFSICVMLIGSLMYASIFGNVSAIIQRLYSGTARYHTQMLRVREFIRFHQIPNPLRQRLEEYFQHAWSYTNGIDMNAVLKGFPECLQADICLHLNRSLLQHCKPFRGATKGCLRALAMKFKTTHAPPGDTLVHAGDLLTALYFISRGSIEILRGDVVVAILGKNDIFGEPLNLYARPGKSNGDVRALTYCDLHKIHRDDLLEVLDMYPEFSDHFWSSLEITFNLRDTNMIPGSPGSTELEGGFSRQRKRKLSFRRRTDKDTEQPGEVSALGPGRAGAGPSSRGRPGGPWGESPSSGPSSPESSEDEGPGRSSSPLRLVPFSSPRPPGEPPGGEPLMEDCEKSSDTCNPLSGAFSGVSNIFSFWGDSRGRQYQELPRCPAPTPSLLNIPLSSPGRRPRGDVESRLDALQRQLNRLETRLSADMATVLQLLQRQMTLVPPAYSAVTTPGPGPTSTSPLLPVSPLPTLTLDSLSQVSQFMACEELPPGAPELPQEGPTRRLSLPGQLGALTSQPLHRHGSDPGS
As for `CCc1ccc(OCC2c3cc(OC)c(OC)cc3CCN2C(=S)NCCOC)cc1` (stereo not drawn), the “hERG current change (%, negative = inhibition) at 1uM” value turned out to be 7.43%. With `COCCCn1cn[nH]c1=S` the figure was 10.8%. Consider `COc1ccccc1NC(=S)NCc1ccccn1`, for which the “hERG current change (%, negative = inhibition) at 1uM” value amounted to 2.03%. The same measure for `Cc1cc(OCC(=O)N2CCCC2)ccc1Cl`: 3.99%.

For the compound `c1ccc2c(c1)ncn2CCCOc1ccc2c(c1)CCC2`, the “hERG current change (%, negative = inhibition) at 1uM” value is on record as 0.906%.

Consider `CCOC(=O)c1ccccc1NC(=S)N1CCN(C(=O)c2ccco2)CC1`, for which the “hERG current change (%, negative = inhibition) at 1uM” value was 14.4%. `Cc1cccc(C)c1NC(=O)CNC(=O)c1c(C)nn(C)c1Cl`: the “hERG current change (%, negative = inhibition) at 1uM” value is recorded as 15.2%. In the case of `O=C(O/N=C(\c1ccccc1)c1ccncc1)c1ccccc1F`, the “hERG current change (%, negative = inhibition) at 1uM” value is listed as 12.2%.

As for `Cc1ccc(S(=O)(=O)N(C)CCCC(=O)Nc2ccccn2)cc1`, the “hERG current change (%, negative = inhibition) at 1uM” value turned out to be 9.9%. Regarding `CCN(Cc1ccncc1)Cc1cn[nH]c1-c1ccc(OC)cc1F`, the “hERG current change (%, negative = inhibition) at 1uM” value came to 14.2%. In the case of `CC(C)CNC(=O)COc1ccc2c3c(c(=O)oc2c1)CCC3`, the “hERG current change (%, negative = inhibition) at 1uM” value stood at 11.3%. With `Cc1cc2c(cc(C(=O)N3CCC(C(=O)NC4CCCC4)CC3)n2Cc2c(F)cccc2Cl)o1` the figure was 9.07%; with `O=C(NNC(=O)c1csc(N2CCOCC2)n1)c1ccc(Cl)nc1`, 8.14%; with `CS(=O)(=O)N(CC(=O)N1CCCCC1)c1sc2c(c1C#N)CCCC2`, -9.12%.

As to `CC(C)=CCSc1nnc([C@@H](N)Cc2c[nH]c3ccccc23)o1.Cl`, the “hERG current change (%, negative = inhibition) at 1uM” value was 19.2%. As to `COc1ccc(C(c2sc3nc(C)nn3c2O)N2CCN(Cc3ccccc3)CC2)cc1OC` (stereo not drawn), the “hERG current change (%, negative = inhibition) at 1uM” value is 3.82%. For the compound `c1ccc(CCn2nnnc2C(c2cccnc2)N2CCOCC2)cc1` (stereo not drawn), the “hERG current change (%, negative = inhibition) at 1uM” value is 11.6%.

For the compound `Cc1cc(-c2cc(C(=O)O)c3ccccc3n2)c(C)s1`, the “hERG current change (%, negative = inhibition) at 1uM” value was found to be 1.09%. With `CC[C@H](C)[C@H](NC(N)=O)C(=O)NCCc1ccc(Cl)cc1Cl` the figure was 15.6%; with `CC(=O)n1nc(-c2ccccc2)cc1-c1ccccc1`, 9.32%. With `CC(=O)c1ccccc1OC(=O)COc1ccc([N+](=O)[O-])cc1`, the “hERG current change (%, negative = inhibition) at 1uM” value was found to be 13.5%. Regarding `CNCCC=C1c2ccccc2CCc2ccccc21.Cl`, the “hERG current change (%, negative = inhibition) at 1uM” value is 7.49%.

With `CC(C)c1ccc(/C=N/NC(=O)C(=O)NCCCN2CCOCC2)cc1`, the “hERG current change (%, negative = inhibition) at 1uM” value is on record as -5.75%. The same measure for `O=S(=O)(c1cccs1)N1CCc2ccccc21`: 2.83%; for `CCCS(=O)(=O)c1c(S(=O)(=O)CCC)c2c(C)cccn2c1C(N)=O`: 8.93%. As for `CCOC(=O)C1CCN(S(=O)(=O)c2ccc3c(c2)CCN3C(C)=O)CC1`, the “hERG current change (%, negative = inhibition) at 1uM” value came to 6.99%. On to `COc1ccc(CNC(=O)C(C)N(Cc2ccco2)C(=O)c2snc(C(N)=O)c2N)cc1` (stereo not drawn), for which the “hERG current change (%, negative = inhibition) at 1uM” value was 0.521%.

For the compound `CC(C)Cn1c(=O)c2ccccc2n2c(CCC(=O)NCC3CCCO3)nnc12` (stereo not drawn), the “hERG current change (%, negative = inhibition) at 1uM” value stood at 7.52%. In the case of `CCOc1ccc(N=c2cc(-c3ccc(OC)cc3)oc3ccccc23)cc1`, the “hERG current change (%, negative = inhibition) at 1uM” value was found to be 1.66%. Turning to `O=C(Nc1nnc(-c2ccco2)o1)c1ccc2ccccc2c1`, the “hERG current change (%, negative = inhibition) at 1uM” value turned out to be 7.83%.

As to `CCN1CCCc2cc(CN(CCN3CCOCC3)C(=S)Nc3ccccc3C)ccc21`, the “hERG current change (%, negative = inhibition) at 1uM” value came out at 11.3%. The same measure for `CCCOc1ccc(N2C(=O)CC(N(Cc3ccco3)C(C)=O)C2=O)cc1` (stereo not drawn): -2.02%. With `O=C(CN1CSCC1=O)N1CCN(S(=O)(=O)c2cccc(F)c2)CC1` the figure was 4.66%. For the compound `CC1(c2cccs2)CC(c2cccs2)=C(C#N)C(=O)N1` (stereo not drawn), the “hERG current change (%, negative = inhibition) at 1uM” value was -0.852%. On to `Cc1c(C(=O)NCCc2ccc(Cl)cc2)sc2nc3n(c(=O)c12)CCC3`, for which the “hERG current change (%, negative = inhibition) at 1uM” value came to 9.41%. Regarding `OCCn1c(SC2CCCCC2)nc2ccccc21`, the “hERG current change (%, negative = inhibition) at 1uM” value is reported as 4.65%. In the case of `CCOc1cc(/C=N\NC(=O)Cn2nc([N+](=O)[O-])cc2C)ccc1OCc1cccc2ccccc12`, the “hERG current change (%, negative = inhibition) at 1uM” value turned out to be 7.11%. With `CC(=O)Nc1ccc(NC(=O)C(C)OC(=O)c2c(C)nn(-c3ccccc3)c2Cl)cc1` (stereo not drawn) the figure was -0.576%; with `COc1ccccc1CNS(=O)(=O)c1c(C)[nH]c(C)c1C(=O)N1CCCCC1`, 1.44%.

For `Cc1nccn1CCOc1ccccc1Cl`, the “hERG current change (%, negative = inhibition) at 1uM” value is -8.4%. On to `Cc1ccc(C2(C)NC(=O)N(CC(=O)Nc3ccccc3N3CCCC3)C2=O)cc1` (stereo not drawn), for which the “hERG current change (%, negative = inhibition) at 1uM” value is reported as 3.38%. Take `CC(OC(=O)c1cc2ccccc2o1)C(=O)Nc1ccc(N2CCOCC2)cc1` (stereo not drawn): the “hERG current change (%, negative = inhibition) at 1uM” value was determined as 6.35%. `COc1ccc(-n2cc(C(=O)c3cc(Cl)ccc3O)cc(C#N)c2=O)cc1`: the “hERG current change (%, negative = inhibition) at 1uM” value is on record as 6.5%.

As for `O=C(COC(=O)Cc1ccc(-c2ccccc2)cc1)NCc1ccccc1`, the “hERG current change (%, negative = inhibition) at 1uM” value is 16.9%. `CCOC(=O)C1CCN(c2c(-c3ccccc3)c3cc(Cl)ccc3[nH]c2=O)CC1`: the “hERG current change (%, negative = inhibition) at 1uM” value was determined as 9.13%. For the compound `COCCSc1ccccc1C(=O)N1CCN(c2ccccc2)CC1`, the “hERG current change (%, negative = inhibition) at 1uM” value is recorded as 11.7%.

For `Cc1c(NC(=O)C(C)OC(=O)c2cccnc2Cl)c(=O)n(-c2ccccc2)n1C` (stereo not drawn), the “hERG current change (%, negative = inhibition) at 1uM” value is given as 8.31%. The same measure for `COc1ccc(N(CC(=O)Nc2ccc3c(c2)OCCO3)S(=O)(=O)c2c(C)noc2C)cc1`: -8.91%; for `CCOC(=O)C(C)N1N=C(/C=C/c2ccc(C)cc2)CCC1=O` (stereo not drawn): 5.69%; for `Cc1c(C(=O)Nc2cccc([N+](=O)[O-])c2)csc1-c1ccccc1`: 11.3%.

Turning to `CC1CN(C(=O)c2ccccc2OCc2ccc(Cl)cc2Cl)CC(C)O1` (stereo not drawn), the “hERG current change (%, negative = inhibition) at 1uM” value is on record as 5.43%. In the case of `Brc1ccc2c(c1)OCCOCCOCCOCCOCCO2`, the “hERG current change (%, negative = inhibition) at 1uM” value is listed as -78.6%. `O=C(NCCCN1CCOCC1)c1cccc(S(=O)(=O)N2CCN(c3ccccc3)CC2)c1`: the “hERG current change (%, negative = inhibition) at 1uM” value is on record as -24.4%.

With `CCCCC1CCC(C(=O)Nc2ccccc2)CC1` (stereo not drawn), the “hERG current change (%, negative = inhibition) at 1uM” value was 4.4%. For `CC1CCN(S(=O)(=O)c2nnc(NC(=O)c3cccc([N+](=O)[O-])c3)s2)CC1`, the “hERG current change (%, negative = inhibition) at 1uM” value was 14.1%. With `CC(C(=O)Nc1ccc2c(c1)OCO2)N(c1ccc(Cl)cc1)S(C)(=O)=O` (stereo not drawn) the figure was -0.278%; with `CCOc1ccc(CCNC(=O)CCOc2cc(C)ccc2C)cc1OCC`, 7.26%.
